PubChem BioAssay AID1963860 (Molecular Pharmacology Branch, DTP, NCI, 2024)
Certain results were filed several times, with different values. This is not the full list of results. The source may hold further records. Values that stand side by side repeat one measurement across runs, samples, wells, individuals or studies. A date in brackets names the month of the test. Brackets with × count equal records among those shown.

System: CN0375-F725-PDC KRAS spheroid viability
Assay: Anticancer human tumor CN0375-F725-PDC patient-derived colon carcinoma cell line growth inhibition [KRAS2]
Conditions: spheroids with HUVEC and MSC; for viability, T/C: stronger effect = lower value; for IC50: compound alone
Excerpt: Multicellular complex tumor spheroid response to RAS pathway inhibitors in combination with a targeted agents in patient-derived cell lines with oncogenic KRAS variants from multiple cancer types
A high-throughput screen of multi-cell type tumor spheroids was designed to identify active combinations of targeted small molecules and KRAS pathway inhibitors. Complex spheroids include a stromal component modeled by human endothelial cells (HUVEC) and fibroblasts modeled by human mesenchymal stem cells (MSCs). The concentration ranges selected for each drug and investigational agent were based upon clinically achievable concentrations if the clinical Cmax of the agent was known.
Compounds. The drugs and investigational agents: BI-3406 (NSC825286), BAY-293 (NSC824723), batoprotafib (TNO155; NSC825523), sotorasib (AMG 510; NSC818433), MRTX1257 (NSC819558), elimusertib (BAY 1895344; NSC800525), molibresib (GSK525762; NSC774829), temuterkib (LY3214996; NSC803410), venetoclax (NSC766270), alisertib (NSC759677), olaparib (NSC753686), talazoparib (NSC767125), erdafitinib (NSC781556), ipatasertib (NSC767898), cabozantinib (NSC761068), nintedanib (NSC756659), abemaciclib (NSC768073), docetaxel (NSC628503), trametinib (NSC758246), and sapanisertib (NSC764658) were obtained from the National Cancer Institute (NCI) Developmental Therapeutics Program Chemical Repository. The FDA-approved anticancer drug set is available from the Developmental Therapeutics Program. […] The stock solutions were prepared in dimethyl sulfoxide (DMSO, Sigma-Aldrich, St. Louis, MO, cat. D2650) at 800-fold the tested concentration and stored at -70 degrees C prior to their use. All drugs and investigational agents were tested over a range starting from a high concentration at or near the clinical Cmax and decreasing in half-log increments. If the clinical Cmax for an agent had not been determined, the highest concentration tested was 10 microM.
Cell Culture. All cells were maintained in an incubator at 37 degrees C and 5% CO2 with 95% humidity. The PDC lines were cultured according to standard operating procedures established by the NCI PDMR (https://pdmr.cancer.gov/sops/default.htm). Briefly, all PDCs were thawed and cultured in Matrigel-coated flasks prepared with a working solution of 1X Ham's F-12 nutrient mix, without supplementation (Invitrogen, Waltham, MA, cat. 11765054), 100 U/mL penicillin-streptomycin (Invitrogen, cat. 15140122), and 2.5% Matrigel (Corning Inc., Corning, NY, cat. 354248) for the first three passages. All PDCs were cultured in complete DMEM/F-12 media containing advanced DMEM/F-12 (Invitrogen, cat. 12634028), 4.9% defined fetal bovine serum, heat inactivated (HyClone Laboratories Inc., Logan, UT, cat. SH30070.03HI), 389 ng/mL hydrocortisone (Sigma-Aldrich, cat. H4001), 9.7 ng/mL human EGF recombinant protein (Invitrogen, cat. PHG0313), 23.4 microg/mL adenine (Sigma-Aldrich, cat. A2786), 97.3 U/mL penicillin-streptomycin (Invitrogen, cat. 15140122), 1.9 mM L-glutamine (Invitrogen, cat. 25030081), and 9.7 microM Y-27632 dihydrochloride (Tocris Bioscience, Bristol, United Kingdom, cat. 1254). The PDCs were cultured in complete DMEM/F12 media without 9.7 microM Y-27632 dihydrochloride for at least two passages prior to the screen. The established cell line HOP-62 was cultured in RPMI 1640 medium, HEPES (Invitrogen, cat. 22400105) with 10% defined fetal bovine serum (HyClone Laboratories Inc., cat. SH30070.03) and 2 mM L-glutamine (Invitrogen, cat. 25030081). The pooled donor HUVEC were cultured in endothelial cell growth medium 2 (PromoCell, Heidelberg, Germany, cat. C-22011) and the hMSC were cultured in mesenchymal stem cell growth medium 2 (PromoCell, cat. C-28009). For all experiments, HUVEC and hMSC were used at passages </=5, while the malignant cell lines were used at passages </=15. […]
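Further: spheroids exposed to agents for 7 days.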

| Structure (SMILES) | viability, T/C (compound alone 1 µM) | viability, T/C (compound alone 3.16 µM) | IC50 (run of 08/19/2021) | viability, T/C (compound alone 10 µM) | IC50 |
| --- | --- | --- | --- | --- | --- |
| CNCc1ccccc1-c1csc(C(C)Nc2nc(C)nc3cc(OC)c(OC)cc23)c1 (configuration not stated) | 93.5, 94.1, 83.4, 92.4, 50.2, 62.6, 47.3, 55.8, 34.4, 49.5, 55% [2021-08] and 67.1, 65.6, 65.5, 69.9, 52, 58.8% [2021-09] | 100, 0.63, 0.66, 0.45, 0.73, 0.69, 0.29, 0.27, 0.22, 0.26, 0.28% [2021-08] and 0.48, 2.07, 0.73, 0.6, 0.28, 0.39% [2021-09] | 5.57 µM, 1.72 µM, 1.59 µM, 1.7 µM, 974 nM, 1.26 µM | – | – |
| CC1OCC2(CCN(c3cnc(Sc4ccnc(N)c4Cl)c(N)n3)CC2)C1N (configuration not stated) | 94.8, 95.1, 104, 82.8, 86.4, 88, 87.4, 84.1, 82.5, 87.5% [2021-08] and 84.5, 85.3, 90.8, 76.3, 78.3, 79, 77.6, 80.3, 85.2% [2021-09] | – | – | 71.3, 91.5, 74.7, 70.2, 63.3, 66.3, 65.3, 71, 64.2, 68.5, 72.8% [2021-08] and 65.5, 65.8, 67 (2×), 65, 63.4, 65.6, 69.9, 66.3% [2021-09] | – |
| COc1cc2nc(C)nc(NC(C)c3cc(N)cc(C(F)(F)F)c3)c2cc1OC1CCOC1 (configuration not stated) | – | – | > 10 µM, 5.64 µM, 5.74 µM, 5.45 µM | 64.5, 70.9, 79.8, 19.1, 18.1, 11.3, 12, 17.2, 18.2, 11.8, 15.4% [2021-08] and 12.9, 14.3, 12.7, 21.6, 13.8, 18.2% [2021-09] | – |
| COC(=O)c1ccc2c(C(=Nc3ccc(N(C)C(=O)CN4CCN(C)CC4)cc3)c3ccccc3)c(O)[nH]c2c1 | – | 58.6, 64.4, 30.1, 45.6, 49.5% | – | – | – |
| CC1(C)CCC(CN2CCN(c3ccc(C(=O)NS(=O)(=O)c4ccc(NCC5CCOCC5)c([N+](=O)[O-])c4)c(Oc4cnc5[nH]ccc5c4)c3)CC2)=C(c2ccc(Cl)cc2)C1 | – | – | – | 40.1, 22, 32, 56.3, 54% | 6.01 µM, 4.34 µM, 5.85 µM, > 10 µM |
| C=CC(=O)N1CCN(c2nc(OCC3CCCN3C)nc3c2CCN(c2cccc4cccc(C)c24)C3)CC1CC#N (configuration not stated) | – | 108, 19.1, 25.4, 26.4, 19, 21.9, 3.49, 19.4, 8.94, 4.44, 26.1% [2021-08] and 29.4, 38.6, 32.2, 28.7, 22.1, 26.1% [2021-09] | > 3.16 µM, 1.95 µM, 2.14 µM, 2.13 µM, 1.88 µM, 1.91 µM | – | – |
